Data: PubChem BioAssay AID624296 (National Center for Advancing Translational Sciences (NCATS), 2012)
The campaign covered roughly 350,000 compounds. About 9,900 (2.8%) were called active. This list was built around the results that the source calls inconclusive (neither active nor inactive); the mix of calls is not that of the screen. Calls follow the shape of the dose curve; as a rule, active = well fitted activation curve with a large enough effect; inconclusive = small, poorly fitted or top-dose-only effect; inactive = no such curve, though single readings can be large or run the other way. Potencies of inconclusive entries are left out as doubtful fits.
Potency is read from the fitted curve at half-maximal effect; tags tell the direction and shape of the fitted curve.

Assay: A quantitative high throughput screen for small molecules that induce DNA re-replication in MCF 10a normal breast cells. Also: nearly all actives have a fitted effect of over 50% in size. As to activity, positive = re-replication: % of control where 0% means no effect.
Details: MCF 10A DNA re-replication, Hoechst nuclear intensity, 48 h; activity, positive = re-replication: at 46.1 µM (top of the series)
For CC(Cc1ccsc1)NCc1cn[nH]c1-c1ccc(F)cc1F (stereo not drawn), the “activity, positive = re-replication” value was inactive: 1.58%.
For C[C@]12CCC(=O)C=C1C=CC1C2CC[C@]2(C)C(=O)CCC12 (stereo partly drawn), the “activity, positive = re-replication” value was inactive: 16.7%.
With O=C(NC1(C(F)(F)F)Oc2ccc(Cl)cc2O1)N1CCC2(CC1)OCCO2 (stereo not drawn) the Potency was inconclusive [activator, full curve, poor fit].
For Fc1ccc(C(OCCN2CCN(CCCc3ccccc3)CC2)c2ccc(F)cc2)cc1, the Potency was active: 21.1 µM.
For O=C1NC2C(=CC(O)C(O)C2O)c2cc3c(c(O)c21)OCO3 (stereo not drawn), the activity, positive = re-replication was inconclusive: 68.5% [activator].
In the case of CN1CCC(O)(c2ccccc2)C(C(=O)c2ccccc2)C1 (stereo not drawn), the Potency is reported as inconclusive [activator, single point].
With CC(=Nc1ccccc1N)c1c(O)n(C)c(=O)n(C)c1=O the “activity, positive = re-replication” value was inactive: 17.9%.
In the case of C/C(=N\Nc1ccccc1)c1c(O)n(-c2ccccc2)c(=O)[nH]c1=O, the Potency is reported as inconclusive [activator, single point].
In the case of COP(=O)(OC)c1nc(-c2cccc3ccccc23)oc1N1CCCCC1, the Potency is reported as active: 20.6 µM.
In the case of COc1ccc2c(c1OC)CN1CCc3cc4c(cc3[C@H]1C2)OCO4, the Potency is reported as “inactive”.
For O=C(Cn1cc(C(=O)c2ccccc2)c2ccccc21)NCc1ccco1, the Potency was inconclusive [activator, single point].
For COC(=O)C1=C(c2ccccc2OCc2ccccc2)C[C@@H]2CC[C@H]1N2C(=O)NC1CCN(Cc2ccccc2)CC1, the Potency was inconclusive [activator, partial curve, poor fit].
For Nc1c(Br)cc2c3c(cccc13)-c1ccccc1-2, the Potency was inconclusive [activator, full curve, poor fit].
For Cc1ccc(OCC(=O)N2CCN(Cc3ccc4c(c3)OCO4)CC2)cc1, the “activity, positive = re-replication” value was inactive: 3.18%.
In the case of COC(=O)C[C@]1(C(=O)OC)CN(C#N)N(c2ccc(Cl)cc2)C12c1ccccc1-c1ccccc12, the Potency is reported as active: 5.17 µM.
With CCOC(=O)c1sc(/N=C/c2c(O)n(-c3cccc(C)c3)c(=O)[nH]c2=O)c(C#N)c1C the Potency was inconclusive [activator, single point].
With CCC[N+]12CCC(CC1)C(=C(c1ccccc1)c1ccccc1)C2 the Potency was inconclusive [activator, single point].
For CCOc1ccc(Cl)cc1CNCCc1ccc(F)cc1, the Potency was inconclusive [activator, single point].
In the case of NC1=NC(=O)N2CC12 (stereo not drawn), the Potency is reported as inconclusive [activator, partial curve, poor fit].
In the case of CN1CCN(c2nc(N)c(Br)c(Cl)n2)CC1, the “activity, positive = re-replication” value is reported as inactive: 0.982%.
For CN1CCN(c2ccc([N+](=O)[O-])c(N)c2)CC1, the Potency was inconclusive [activator, single point].
For Cc1ccc(-n2c(-c3ccc([N+](=O)[O-])cc3)nc3ccccc3c2=O)cc1, the Potency was inconclusive [activator, partial curve, poor fit].
With COc1cc(C)c(CNCCc2c[nH]c3ccccc23)cc1C the Potency was inconclusive [activator, partial curve, poor fit].
With CC1CC(NC(=O)C2C3CCC(O3)C2C(=O)O)CC(C)(C)C1 (stereo not drawn) the Potency was inconclusive [activator, single point].
With CCOC(=O)c1cc2c(cn1)[nH]c1ccccc12 the Potency was “inactive”.
With Fc1ccc(Cn2nnnc2CN2CCC(n3nnc4cc(C(F)(F)F)ccc43)CC2)cc1 the Potency was active: 25.9 µM.
With O=C(c1cccc(Cl)c1)C1CCCN(Cc2cccc3cnccc23)C1 (stereo not drawn) the Potency was inconclusive [activator, partial curve, poor fit].
In the case of O=S(=O)(NC1CCCCCCC1)OCC(Cl)(Cl)Cl, the Potency is reported as inconclusive [activator, single point].
In the case of CCC(=NCCc1c[nH]c2ccccc12)c1c(O)n(C)c(=O)n(C)c1=O, the Potency is reported as inconclusive [activator, full curve, poor fit].
In the case of CCN1C[C@@]2(COC)C3[C@@H](OC)[C@H]4[C@@H]1[C@@]3(C1C[C@H]3[C@H](O)C1[C@]4(O)C[C@H]3OC)[C@@H](OC)C[C@H]2O (stereo partly drawn), the “activity, positive = re-replication” value is reported as inactive: -27.7%.
With O=c1[nH]c(=S)n(CCC2=CCCCC2)c(O)c1C=NCCCn1ccnc1 the Potency was inconclusive [activator, partial curve, poor fit].
In the case of CCc1ccc(N2C(=O)NC(=O)/C(=C/c3cccn3CCOc3ccc(C)cc3)C2=O)cc1, the Potency is reported as active: 20.6 µM.
In the case of COc1ccc(C(O)P(=O)(OC(C)C)OC(C)C)cc1 (stereo not drawn), the “activity, positive = re-replication” value is reported as inactive: -0.629%.
In the case of C=C(C=O)CC1CC(O)[C@]2(C)OC3CC4OC5C[C@]6(C)O[C@]7(C)CCC8OC9C[C@]%10(C)OC%11C(C)=CC(=O)OC%11CC%10OC9C[C@@H](C)C8OC7CC6O[C@]5(C)CC5OC5C4OC3CC2O1 (stereo partly drawn), the Potency is reported as active: 4.61 µM.
For O=c1[nH]c2c(s1)C(c1cccnc1)C1C3CCC(C3)C1S2 (stereo not drawn), the Potency was inconclusive [activator, single point].
For CC1=C2[C@H]3OC(=O)[C@@H](C)[C@@H]3CC[C@@]2(C)C=CC1=O, the Potency was inconclusive [activator, full curve, poor fit].
With O=c1[nH]c(=S)n(CCC2=CCCCC2)c(O)c1/C=N/Nc1ccccc1 the Potency was inconclusive [activator, single point].
With CCOP(=O)(OCC)c1nc(-c2ccc(F)cc2)oc1NCc1ccccc1 the Potency was active: 4.11 µM.
In the case of Cc1cc2oc(=O)cc(-c3ccccc3)c2c(C)c1-c1ccc(CO)cc1, the Potency is reported as inconclusive [activator, single point].
With CCN(CC)c1ccc(CNCCc2ccccc2F)cc1 the Potency was inconclusive [activator, single point].
For O=C(O)CC1OCC=C2CN3CCC45C6=CC(=O)C(=O)C([N+](=O)[O-])=C6NC4C1C2CC35 (stereo not drawn), the “activity, positive = re-replication” value was inactive: 8.15%.
With O=C(COc1ccc(Cl)cc1Cl)Nc1ccc(CN2CCCCC2)cc1 the Potency was inconclusive [activator, single point].
With COc1ccc(-n2c(-c3ccccc3[N+](=O)[O-])nc3ccccc3c2=O)cc1 the Potency was inconclusive [activator, partial curve, poor fit].
